Source: the supplement of paper PMC3334620
Over roughly 33,000 sequences, “E-score (-0.5 to 0.5)” has its median near -0.054; the highest 2% begin near 0.39. This is one part of the list.

molecular target: Ylr278c (UniProt Q05854); test: PBM E-score (8-mer binding enrichment) (E-score (-0.5 to 0.5)); higher = stronger / more preferred TF binding; most listed sequences are background and not binding sites; conditions: protein concentration: 200 nM; construct: GST-DNA-binding domain
How it was run: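 The E-score, a modified Wilcoxon-Mann-Whitney statistic, was computed by the Universal PBM Analysis Suite for every ungapped eight-base word pooled with its reverse complement. Scans behind it were normalised with masliner after bound GST-tagged yeast transcription factors were detected with fluorescent anti-GST. The proteins, at about 100-200 nM, had been applied to universal all-10-mer Agilent arrays made double-stranded by primer extension.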

Sequence | PBM E-score
ACTCAAAT | -0.134
GACTTAAC | -0.107
ACGCTGTG | -0.235
AATTAATA | 0.198
ATAATATA | 0.0443
ATCACGTG | -0.0223
CGCTCCAG | 0.0273
GAGTGCGC | 0.178
AGACACCC | -0.232
AATCAAGC | -0.241
CAACTTAC | -0.0926
AGGTGTCG | 0.0347
CTGGCCCA | -0.278
AGCCGCTA | 0.0433
CATCAGGA | 0.105
TCGTGCAA | -0.235
CGCATGAC | -0.0664
CCGGCTTC | 0.335
GAGGGTGC | -0.036
AAGTTGAT | -0.155
CCTCTCTC | -0.271
ACTGATGC | -0.0244
AGTGTCTG | -0.255
CATAATCA | -0.125
ACCCGGTC | 0.202

Sequence | PBM E-score
ACTTATTC | 0.172
AAGCTTCG | -0.00667
GCAGATCC | 0.0453
CCACATTC | -0.0129
AGGGGGCC | -0.262
CATTAGCA | -0.143
TGACCTAA | -0.116
AGGTGACT | -0.214
CTTTCCGC | 0.332
ATCCTGTG | -0.13
GATAGACA | -0.324
CCAGTCGG | 0.237
ATGGGCGG | 0.192
AATAATTA | 0.081
AAGTATGG | -0.149
ATTAGTAC | -0.0906
CTAAGATC | -0.0526
CCCAATAG | -0.196
AGCGTTTC | -0.0846
GGTAGGTA | -0.087
GCGTCCGA | 0.292
AGCCTTTG | -0.28
AACGGAAT | 0.379
ACAGCCGA | -0.0138
CGAGCACA | 0.0583

Sequence | PBM E-score
GAATGTAA | 0.133
CGCGCTAA | 0.0872
ATTCCAAC | -0.176
GCCCGGCC | 0.32
AAACATTC | 0.0303
GGCGGATA | 0.293
AGATTAGG | -0.0834
GCCAACCA | 0.00869
CGTGCGTA | -0.0456
AGCCGGAA | 0.43
ACGTAGCA | -0.203
AAGGTTAA | -0.192
CGACGACC | 0.248
CGCCTTCC | 0.161
CTCGGGTC | 0.115
AGGAGGCC | -0.164
GAATATAA | 0.0665
CGGTAATA | 0.242
ATAGCTTC | -0.148
GATACTAC | 0.096
TTACGAAA | -0.0608
AACTATTG | -0.136
AAGCCATT | -0.102
AGTAACCC | -0.0193
CCCAAAGC | -0.122

Sequence | PBM E-score
CCTCTCCG | 0.333
AGTGACAA | -0.18
AGTAGGCA | -0.0759
ACGACTCG | -0.0499
TCACGACA | -0.312
AGATGAGG | -0.133
AGGAGTGC | -0.139
GAAACCTC | 0.0208
CAGGTAAC | -0.178
CGTATCTA | -0.0584
ACAGAAAC | -0.122
CCCTCAAC | -0.122
CGATATCG | 0.177
ATCTGACA | -0.198
AGCTCTCG | 0.0464
CCATGTAG | -0.049
AATGCCCT | -0.0493
AAGAAAGA | -0.0469
CTAGAAAC | -0.285
GGTGCCGA | 0.278
ACGGTCGG | 0.255
TGATCGCA | -0.246
GATCGGGA | 0.227
CTAAATAG | -0.277
AGTCAATG | -0.298

Sequence | PBM E-score
AGGGGAAG | -0.399
CCTGTGTC | -0.107
CGTAGTAC | -0.119
CCGCTCAA | 0.176
GCCTCCGA | 0.398
ATCAGCGC | 0.197
AGACACTG | -0.321
CTGCATCA | -0.299
AAAGGGGT | -0.255
CCTACTTC | -0.0956
ATATACAC | -0.0874
AACAACGG | 0.137
CAAGACTC | -0.0497
CCGGTCAA | 0.351
CGGCACCC | 0.102
CATCGCGA | 0.0541
CGGTCAAA | 0.164
GGAGGAAC | 0.217
ATAAGGCG | -0.0237
AGCTCAAA | 0.053
CGACGTGA | -0.00736
ATCTCAAG | -0.109
AGGCTTGA | -0.221
CAGGTGGC | -0.264
ATAGTTGC | 0.00742

Sequence | PBM E-score
ACTTGAAT | -0.0552
ACCAGCCG | 0.167
CGTAGTCA | -0.235
TACAGAAA | -0.0928
CGACCTCC | 0.28
CCAGTTCA | 0.057
GAGGATAC | -0.125
CCTCAGTA | -0.165
AATCATTA | -0.208
GACAACTC | 0.127
ACCCCCTC | -0.222
CCATGGTC | -0.272
ATGCAGAG | -0.192
ATGGCGAA | 0.189
GGCTGAGA | -0.00471
AAAAACAA | 0.0827
CGTCCTCA | -0.138
GTACCGAA | -0.0221
CGCACCAA | 0.0882
ACGAATTC | -0.1
GGGATCGA | -0.0342
ACCGTACC | -0.0372
CAGCCCCC | -0.213
CTGGGAGA | -0.0411
AGCTGGGG | -0.0831

Sequence | PBM E-score
CCCCCGGC | 0.254
ATATGGAG | 0.0345
GATCCCGA | 0.271
GTCCATCA | 0.0432
GTAAGGCA | -0.198
AGGTCCCG | 0.173
CACGGCTG | -0.0578
ACAATAAA | -0.0377
CCCGTTAA | 0.0382
GCTCGAGA | -0.231
ACGACGCT | -0.155
ATAGCTAC | -0.136
AACATTGG | -0.221
AGACATCA | -0.0738
CAGGGTTA | -0.339
ACTGTCAC | -0.145
AGGTGTTA | -0.317
CGACGTCC | 0.219
GCTTATGA | 0.0147
GTTGTACA | 0.149
GGCCATGA | 0.0397
GCCGTTGA | 0.0232
CGGGGTCC | 0.328
GCTCGATA | -0.0473
AGATCTCA | -0.182

Sequence | PBM E-score
GAGAACGA | 0.0372
AAGGGTCG | -0.0389
GTAGTGAC | 0.0783
CGCATCCA | -0.0772
AGGCATTA | -0.134
CATCGACG | -0.111
GGCTGTAA | -0.267
TCTCTGCA | -0.142
CCACATCG | 0.0693
CGGGGATA | 0.349
AAGTTGTA | -0.13
AAACAACA | -0.119
CGATTATC | 0.12
ACGCCACC | -0.139
ATAATTTG | 0.102
TCTGAAGA | -0.148
CGCTGAGC | -0.147
CCTACGAC | -0.163
TCGTAAAA | -0.0488
ACACGGCC | 0.179
CCAACCAA | -0.0835
CAGCCCTC | -0.127
AGGCGGTG | -0.0602
ACTAGCCG | 0.0848
CCTCTGCA | -0.122

Sequence | PBM E-score
CTATGGCA | -0.344
TCATGCCA | -0.257
CTCTCCAA | 0.0897
ATGGCACA | -0.0452
CCGTTGAG | 0.0643
TCTTTTAA | -0.119
CCGCGGGA | 0.393
ACCGTAAG | 0.0611
AAGTCTCG | -0.0679
CAAAAGTA | -0.125
ACTAACTA | -0.106
CCGGAGGA | 0.465
ATGGGCTA | -0.136
AGTTGGGC | -0.0857
GGTTTTTA | -0.0655
GACCGAAA | 0.225
GATGGCAC | 0.0573
AGTCTGAC | -0.273
AAAACTGA | -0.0811
GGTGGGTA | 0.0728
CGCGACCA | 0.121
CACGATTA | -0.0584
ATCCTTCG | 0.167
ACTCGAAT | -0.189
CGTAGCGA | 0.0415

Sequence | PBM E-score
AGATTATA | -0.121
AAACACGA | -0.061
ATTCTCCG | 0.474
CACACGAG | -0.236
ATTTTGTA | 0.119
TCAGCGAA | -0.0965
CAGCTTCA | -0.141
ATTGCGGA | 0.33
CCGCAAGG | 0.123
CTAACGCA | 0.0237
GAGTCCAC | -0.0928
TATGAACA | -0.233
GCGAGGCA | 0.0382
AAGACGCT | -0.26
ATTTAATA | 0.0823
AAATGGAA | -0.0257
AAGAAGCA | -0.0169
GCGCTACC | -0.0779
TTATCAAA | -0.0329
CGAGAAAA | -0.0264
CTAATCGC | 0.0688
GTGAGGTA | -0.128
CAGCCACC | 0.0671
AGTAATAT | 0.0206
CTCAGACC | -0.0578

Sequence | PBM E-score
CACAAAAG | 0.0739
CAGGGCTC | -0.234
CCTCGACA | -0.257
CTGTCAGA | -0.135
CTACAGTA | -0.152
CTGCAATC | 0.0675
TAAGATGA | -0.288
ATCCGTAG | 0.134
GACAATAC | 0.0465
ATGGAGAA | 0.148
AGTCCGAC | 0.431
AGAACGGA | 0.256
GGAAATAC | 0.315
AGCGTTAC | -0.221
CCCCAGAC | -0.18
ACGCAACG | 0.102
ATATAGAC | -0.134
CACCGTAA | -0.066
AGTCGTTC | -0.247
AGATGGAT | -0.17
ACTCAAAA | -0.111
CACCTCGA | 0.0348
CCCAGGTC | -0.278
ATTCTTAC | -0.0377
CCTGCGCC | 0.0201

Sequence | PBM E-score
ATTAGAGG | -0.113
AAAACTCG | 0.0801
TCACTGAA | 0.00301
CATCTCTC | 0.142
AGTAGTGG | -0.0421
CGGGTCTA | 0.0509
ACTGACCC | 0.044
AGGCGGGC | 0.204
ACATGTCA | -0.252
AATTAGAA | 0.0532
ATAAAGGC | -0.00968
ACCCGTAC | 0.0229
AGAACTCA | -0.137
CCAAACCA | -0.035
GGCGCACC | 0.00028
AGACGTAT | -0.0968
AGTGATCA | -0.148
GTTATTAA | 0.152
AACTGCAG | -0.15
TAGGATCA | -0.199
AACGCGAG | -0.0409
GACACTTA | -0.143
GCTGCAGA | -0.111
AAACACTT | -0.159
ATGTCAAA | -0.0843

Sequence | PBM E-score
GCCCCGGA | 0.439
GCAACCCA | -0.292
ACACGCAA | -0.151
AGTTTGAT | 0.0532
CAAAGTGA | -0.0515
CAACCCCA | 0.124
CAGACACC | -0.112
GGCAACGA | 0.0175
ACGATACG | -0.323
CGGTCTCC | 0.304
CGAAGGGA | -0.0862
CTAGTCCA | -0.0179
CCCGACCG | 0.324
GAATCGGA | 0.409
CACCGTGC | -0.0579
CCGCGGAA | 0.414
CCCGGACC | 0.376
CTACGAAA | -0.206
CATAAAGA | -0.176
AGCACCAC | -0.207
GCCGTGCC | 0.102
TCAGTACA | -0.1
AATACCGT | 0.211
CTCTGACA | -0.148
ATGTTCCC | -0.0151

Sequence | PBM E-score
AACTGCAA | 0.0771
CCCCGTCA | 0.204
ACCCCTAG | -0.27
ACGTATAA | -0.188
ATTCCAGC | -0.104
AGTCTTCC | -0.0317
CGGATGCA | 0.2
GGTGAGAC | -0.184
GAATTTGC | 0.199
AGGAAAGC | -0.0801
ACTAAAGT | -0.236
CGACAATC | 0.171
CTTGAAGC | -0.168
GAACTCAC | -0.219
ATAGGCGC | 0.118
GCCCTGGA | -0.12
CCCGATGC | 0.282
ACACAAAC | 0.0115
ACACCAGT | -0.341
